Consider 43 compounds from ChEMBL document CHEMBL4888484, “Replenishing the malaria drug discovery pipeline: Screening and hit evaluation of the MMV Hit Generation Library 1 (HGL1) against asexual blood stage Plasmodium falciparum ,using a nano luciferase reporter read-out” (2022).

Structures are written as SMILES. The campaign covered roughly 150,000 compounds. About 540 (0.36%) showed an effect of 50% or more. This is one part of the list.

In the experiment the test system is Plasmodium falciparum. Put plainly: Primary screen in NF54 nanoGlo assay, in single point, at 2uM, 72h; a lower Z score goes with more inhibition. It counts as functional, Erythrocyte. Conditions: timepoint 72 hour.
As for `COc1cccc(F)c1-c1nc2c([nH]1)c(C)nn2[C@@H](C)C1CC1`, the % Inhibition (commonly the relative decrease from the control value, in per cent) is listed as -8% and the Z score was determined as 1.14.
For `c1ccc(CN(Cc2cc[nH]n2)c2nc(-c3cccnc3)nc3c2CCC3)cc1` the same measures were -11% and 1.62.
As to `CC(C)OCCCN1C(=O)CC[C@H]1c1c[nH]c2ccccc12`, the “% Inhibition” value is on record as -18% and the Z score is 2.08.
Regarding `O=C(c1ccon1)N1CCCc2c(Br)cccc2C1`, the “% Inhibition” value is listed as -3% and the Z score was found to be 0.28.
As for `Cc1nn(C)c2nc(N3CCN(Cc4ccco4)CC3)sc12`, the “% Inhibition” value is listed as -15% and the Z score was determined as 2.27.
For `O=C(Nc1csc(-c2ccncc2)n1)[C@H]1CCCOC1` the same measures were -6% and 0.96.
For `Cc1cc(C)cc(Nc2cc(C(=O)Nc3ccccc3)ccn2)c1` the same measures were -5% and 0.69.
For `CN1[C@@H](CO)C[C@@H](CNCc2cccn2-c2nccs2)[C@H]1c1ccccc1F`, the “% Inhibition” value was -8% and the Z score stood at 1.23.
Turning to `COc1cc(OC2CC2)ccc1C(=O)N(C)CC1CCN(C)CC1`, the “% Inhibition” value came out at 13% and the Z score is listed as -1.69.
Turning to `Cc1cncnc1C1CCN(C(=O)CC[C@H](C)N2CCOCC2)CC1`, the “% Inhibition” value came to 1% and the Z score was -0.24.
With `Cc1ccc(N2CCCC2)c(C(=O)N2CCCN(CC(N)=O)CC2)c1`, the “% Inhibition” value was found to be 2% and the Z score was -0.43.
Consider `O=C(NC1CCCCCCC1)c1cccc(-n2nnc3cccnc32)c1`, for which the “% Inhibition” value was -11% and the Z score was determined as 2.24.
For `COc1cccc(CNC(=O)c2cc(S(=O)(=O)N3CCCCCC3)cn2C)c1` the same measures were -14% and 1.78.
For `C[C@@H](CCc1ccccc1)n1cnc2snnc2c1=O`, the “% Inhibition” value turned out to be 5% and the Z score is on record as -0.65.
Turning to `Cc1ccc(NS(=O)(=O)c2cc(-c3nnc(C(=O)N4CCCCC4)o3)sc2C)c(C)c1`, the “% Inhibition” value was -11% and the Z score is listed as 1.64.
With `CCOC(=O)c1cc(NC(=O)N(C)[C@@H](C)CC(=O)NC)ccc1Cl`, the “% Inhibition” value is -5% and the Z score is on record as 0.62.
In the same order, the values of `CCc1nnc(N2CCc3ccccc32)nc1CC` are -5% and 0.97.
Take `CC(C)OCCCNC(=O)[C@H]1CCCN(c2nc3ncccc3n3cccc23)C1`: the “% Inhibition” value was -13% and the Z score was 1.46.
`COCCN(CCOC)c1cc(C#N)cc(C)n1`: the “% Inhibition” value is -2% and the Z score turned out to be 0.19.
Turning to `Cc1ncc2c(n1)CCN(Cc1coc(-c3ccccc3)n1)C2`, the “% Inhibition” value is on record as -5% and the Z score was 0.95.
In the case of `O=C(CCn1nc2ccccn2c1=O)Nc1cccnc1O`, the “% Inhibition” value is listed as -1% and the Z score is 0.14.
On to `CC(C)n1ccnc1CNC(=O)c1ccc2c(c1)OCCO2`, for which the “% Inhibition” value was 0% and the Z score turned out to be 0.05.
For the compound `COCC(=O)N1C[C@@H]2CCN(Cc3cccc(C#N)c3)C[C@]2(CO)C1`, the “% Inhibition” value came out at 1% and the Z score is recorded as -0.09.
Turning to `CCc1nnsc1C(=O)NCCCOCC(C)C`, the “% Inhibition” value is listed as -11% and the Z score came to 1.33.
As for `O=C(Nc1ccc2nscc2c1)[C@@H]1CCCCO1`, the “% Inhibition” value is listed as 0% and the Z score was 0.
Take `Cc1cc(-c2ccc(C(=O)N3CCC[C@H](C(=O)N4CCCC4)C3)cc2)ccn1`: the “% Inhibition” value is -7% and the Z score stood at 1.24.
As for `CCn1nc(C)c(CNc2cnc3c(c2)c(NC(=O)[C@@H]2CCCO2)c(C(=O)OC)n3CCc2ccccc2)c1C`, the “% Inhibition” value is given as 24% and the Z score is -3.17.
For the compound `O=c1c2ccccc2nc(-c2cccc(F)c2)n1Cc1ccc(Cl)cc1`, the “% Inhibition” value was -17% and the Z score is reported as 1.57.
In the case of `CCCNC(=O)N1CCC(c2nnc(CN3CCCCCC3)n2C)CC1`, the “% Inhibition” value was 0% and the Z score is given as -0.07.
For `COc1ccc(C(=O)N[C@H](C(=O)NC(C)C)C2CCN(C(=O)c3ccccc3F)CC2)cc1`, the “% Inhibition” value is recorded as -15% and the Z score was 2.14.
Take `C[C@H](C(=O)N[C@H]1CC[C@H](NC(=O)C2CCCc3[nH]cnc32)CC1)c1ccccc1` (stereo partly specified): the “% Inhibition” value was 0% and the Z score is listed as 0.06.
With `COc1ccccc1CCNC(=O)Cn1c2ccccc2c2cnn(C)c(=O)c21`, the “% Inhibition” value is listed as 17% and the Z score is given as -1.75.
As to `Cn1cc(CNc2ccccc2CN2C(=O)CCC2=O)cn1`, the “% Inhibition” value turned out to be 10% and the Z score was -1.29.
In the case of `CC(C)Cc1nc(CN2CCc3nocc3C2)no1`, the “% Inhibition” value is -6% and the Z score was found to be 1.24.
As for `CCOc1ccc(CN=C(N(C)C)N(C)C)cc1F`, the “% Inhibition” value is given as 7% and the Z score is listed as -1.36.
As to `O=C(Nc1ccc(Cl)cc1)[C@H]1CCCC[C@H]1C(=O)NCCCn1ccnn1`, the “% Inhibition” value worked out at 5% and the Z score was -0.92.
Consider `CC[C@@H](C(=O)Nc1cc(C)cc(C)c1)N1C(=O)CCn2nc(C)cc21`, for which the “% Inhibition” value is -2% and the Z score was 0.22.
For `COc1cc(CN(C)c2ncccn2)sn1`, the “% Inhibition” value is on record as -13% and the Z score turned out to be 1.36.
Turning to `O=C(c1nccc2ccsc12)N1CCC[C@H](c2nc3ccc(F)cc3o2)C1`, the “% Inhibition” value is -21% and the Z score was 1.83.
As to `COc1cccc(C(=O)N2CCN(c3ccc(NC(=O)C4CCCC4)cn3)CC2)c1`, the “% Inhibition” value is recorded as 0% and the Z score is -0.08.
`COc1ccc(Cc2noc(C3CCOC(C)C3)n2)c(Cl)c1OC` (stereo unspecified): the “% Inhibition” value is reported as 3% and the Z score is recorded as -0.34.
In the same order, the values of `CCOc1cc(CN=C(N)Nc2cccc(C)c2)ccn1` are -3% and 0.56.
Turning to `C=CCCC(=O)NC[C@](C)(O)c1ccco1`, the “% Inhibition” value was -12% and the Z score is given as 2.08.
